The text below walks through data of a collection of fitness landscapes (doi:10.1016/j.celrep.2020.107928).

The full ranking holds about 81,000 sequences; the median of “one-hybrid fitness for binding NBS DNA” is about -0.1, and the highest 2% start at about 0.36. Some of the results follow.

To fix the notation:
B1: Caulobacter ParB omega fusion; a variant is named by its letters at X, in order, B8GW30 (parent)
chain: MESVVVGEPGMSEGRRGLGRGLSALLGEVDAAPAQAPGEQLGGSREAPIEILQRNPDQPRRTFREEDLEDLSNSIREKGVLQPILVRPSPDTAGEYQIVAGERAWRAAQRAGLKTVPIMVRELDDLAVLEIGIIENVQRADLNVLEEALSYKVLMEKFERTQENIAQTIGKSXSHVANXMRLLXLPDEVQSYLVSGELTAXHARAIAAAADPVALAKQIIEGGLSVRETEALARKAPNLSAGKSKGGRPPRVKDTDTQALESDLSSVLGLDVSIDHRGSTGTLTITYATLEQLDDLCNRLTRGI

This assay covers variants of B1. Kind of assay: one-hybrid fitness for binding NBS DNA (the Noc-binding site; scaled: cognate 1, non-cognate 0); higher = stronger binding. The conditions noted are these: with NBS DNA site. In a few lines:
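The reporter was HIS3, with the binding site 19 bp from the promoter, in E. coli USO used for bacterial one-hybrid selection of Caulobacter ParB libraries with four specificity codons randomised. Growth was on M9 lacking histidine, with 0.1 mM IPTG and 5 mM 3-AT, for 48 hours at 37°C. Illumina sequencing covered plasmids before and after selection; three replicate libraries were pooled and variants with under 10 reads dropped. A fitness score is the log change in variant-to-wild-type read ratio, rescaled to the cognate and non-cognate references.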
Turning to HPHT, the “one-hybrid fitness for binding NBS DNA” value was ≤ 0.2.

Consider PVYL, for which the “one-hybrid fitness for binding NBS DNA” value is ≤ 0.2.

For WRLH, the “one-hybrid fitness for binding NBS DNA” value was ≤ 0.2.

As for NMEG, the “one-hybrid fitness for binding NBS DNA” value is ≤ 0.2.

With FYHG, the “one-hybrid fitness for binding NBS DNA” value was ≤ 0.2.

For the variant CPPR, the “one-hybrid fitness for binding NBS DNA” value is ≤ 0.2.

Take GRRR: the “one-hybrid fitness for binding NBS DNA” value is 0.22.

On to VVRE, for which the “one-hybrid fitness for binding NBS DNA” value was ≤ 0.2.

For GVPP, the “one-hybrid fitness for binding NBS DNA” value was ≤ 0.2.

As to HAHS, the “one-hybrid fitness for binding NBS DNA” value was ≤ 0.2.

Regarding THMK, the “one-hybrid fitness for binding NBS DNA” value was ≤ 0.2.

Take VPPE: the “one-hybrid fitness for binding NBS DNA” value was ≤ 0.2.

Take DKNH: the “one-hybrid fitness for binding NBS DNA” value is ≤ 0.2.

For PSAT, the “one-hybrid fitness for binding NBS DNA” value is ≤ 0.2.

WSHY: the “one-hybrid fitness for binding NBS DNA” value is ≤ 0.2.

Turning to QEPG, the “one-hybrid fitness for binding NBS DNA” value was ≤ 0.2.

Regarding PASS, the “one-hybrid fitness for binding NBS DNA” value was ≤ 0.2.

RKWR: the “one-hybrid fitness for binding NBS DNA” value amounted to 0.49.

For the variant HSYR, the “one-hybrid fitness for binding NBS DNA” value is ≤ 0.2.

As for RNPY, the “one-hybrid fitness for binding NBS DNA” value is ≤ 0.2.

For the variant EKTH, the “one-hybrid fitness for binding NBS DNA” value is ≤ 0.2.

For CDSR, the “one-hybrid fitness for binding NBS DNA” value was ≤ 0.2.

On to RVVD, for which the “one-hybrid fitness for binding NBS DNA” value was ≤ 0.2.

Regarding TTKV, the “one-hybrid fitness for binding NBS DNA” value was ≤ 0.2.

As to PGET, the “one-hybrid fitness for binding NBS DNA” value is ≤ 0.2.

KNLS: the “one-hybrid fitness for binding NBS DNA” value is ≤ 0.2.

For VAYS, the “one-hybrid fitness for binding NBS DNA” value was ≤ 0.2.

Regarding DFPR, the “one-hybrid fitness for binding NBS DNA” value was ≤ 0.2.

KTCG: the “one-hybrid fitness for binding NBS DNA” value was ≤ 0.2.

On to VQHR, for which the “one-hybrid fitness for binding NBS DNA” value was ≤ 0.2.

Consider LGHI, for which the “one-hybrid fitness for binding NBS DNA” value was ≤ 0.2.

On to VNLH, for which the “one-hybrid fitness for binding NBS DNA” value is ≤ 0.2.

As to VATV, the “one-hybrid fitness for binding NBS DNA” value is ≤ 0.2.

On to LCEE, for which the “one-hybrid fitness for binding NBS DNA” value is ≤ 0.2.

For the variant PCVN, the “one-hybrid fitness for binding NBS DNA” value is ≤ 0.2.

With PSAR, the “one-hybrid fitness for binding NBS DNA” value is ≤ 0.2.

On to RSGN, for which the “one-hybrid fitness for binding NBS DNA” value is ≤ 0.2.

Consider DSAD, for which the “one-hybrid fitness for binding NBS DNA” value is ≤ 0.2.

Take TKTY: the “one-hybrid fitness for binding NBS DNA” value is ≤ 0.2.

Regarding ALYR, the “one-hybrid fitness for binding NBS DNA” value is ≤ 0.2.

As to QYMH, the “one-hybrid fitness for binding NBS DNA” value is ≤ 0.2.

As to SVSA, the “one-hybrid fitness for binding NBS DNA” value was ≤ 0.2.

As for CVGC, the “one-hybrid fitness for binding NBS DNA” value was ≤ 0.2.

As for PDEM, the “one-hybrid fitness for binding NBS DNA” value was ≤ 0.2.

For the variant KPRH, the “one-hybrid fitness for binding NBS DNA” value is ≤ 0.2.

Take GATW: the “one-hybrid fitness for binding NBS DNA” value is ≤ 0.2.

As to FEKS, the “one-hybrid fitness for binding NBS DNA” value is ≤ 0.2.

In the case of GLPL, the “one-hybrid fitness for binding NBS DNA” value is ≤ 0.2.

For the variant LCEG, the “one-hybrid fitness for binding NBS DNA” value was ≤ 0.2.

Regarding TFLT, the “one-hybrid fitness for binding NBS DNA” value was ≤ 0.2.

In the case of ITSL, the “one-hybrid fitness for binding NBS DNA” value is ≤ 0.2.

On to NMGE, for which the “one-hybrid fitness for binding NBS DNA” value was ≤ 0.2.

Take QKTP: the “one-hybrid fitness for binding NBS DNA” value is ≤ 0.2.

With RYML, the “one-hybrid fitness for binding NBS DNA” value is ≤ 0.2.

On to IICL, for which the “one-hybrid fitness for binding NBS DNA” value is ≤ 0.2.

As for PSWS, the “one-hybrid fitness for binding NBS DNA” value is ≤ 0.2.

Consider TMWE, for which the “one-hybrid fitness for binding NBS DNA” value was ≤ 0.2.

For QYQW, the “one-hybrid fitness for binding NBS DNA” value is 0.237.

As to AGFC, the “one-hybrid fitness for binding NBS DNA” value was ≤ 0.2.

With SFCW, the “one-hybrid fitness for binding NBS DNA” value was ≤ 0.2.

Turning to FTPL, the “one-hybrid fitness for binding NBS DNA” value was ≤ 0.2.

Take MRCS: the “one-hybrid fitness for binding NBS DNA” value was ≤ 0.2.

For the variant RLAS, the “one-hybrid fitness for binding NBS DNA” value was 0.383.

AVKK: the “one-hybrid fitness for binding NBS DNA” value was ≤ 0.2.

QRIS: the “one-hybrid fitness for binding NBS DNA” value was found to be 0.546.

In the case of PTTD, the “one-hybrid fitness for binding NBS DNA” value was ≤ 0.2.

Turning to SISV, the “one-hybrid fitness for binding NBS DNA” value is ≤ 0.2.

With ACIY, the “one-hybrid fitness for binding NBS DNA” value is ≤ 0.2.

As to QPAN, the “one-hybrid fitness for binding NBS DNA” value is ≤ 0.2.

Regarding PYDM, the “one-hybrid fitness for binding NBS DNA” value is ≤ 0.2.

For QLYC, the “one-hybrid fitness for binding NBS DNA” value is ≤ 0.2.

For SDTE, the “one-hybrid fitness for binding NBS DNA” value was ≤ 0.2.

As for YGTT, the “one-hybrid fitness for binding NBS DNA” value is ≤ 0.2.

Consider SEAS, for which the “one-hybrid fitness for binding NBS DNA” value was ≤ 0.2.

On to LNQP, for which the “one-hybrid fitness for binding NBS DNA” value was ≤ 0.2.

Turning to MWDV, the “one-hybrid fitness for binding NBS DNA” value is ≤ 0.2.

As for QKCT, the “one-hybrid fitness for binding NBS DNA” value amounted to 0.475.

In the case of TSDN, the “one-hybrid fitness for binding NBS DNA” value is ≤ 0.2.

As for ATAK, the “one-hybrid fitness for binding NBS DNA” value is ≤ 0.2.

Consider EEHA, for which the “one-hybrid fitness for binding NBS DNA” value was ≤ 0.2.

In the case of RVVQ, the “one-hybrid fitness for binding NBS DNA” value is ≤ 0.2.

SMND: the “one-hybrid fitness for binding NBS DNA” value is ≤ 0.2.

As to MNLV, the “one-hybrid fitness for binding NBS DNA” value was ≤ 0.2.

Consider TADW, for which the “one-hybrid fitness for binding NBS DNA” value is ≤ 0.2.

Regarding FHPG, the “one-hybrid fitness for binding NBS DNA” value was ≤ 0.2.

For the variant MEKR, the “one-hybrid fitness for binding NBS DNA” value was ≤ 0.2.

IEAG: the “one-hybrid fitness for binding NBS DNA” value is ≤ 0.2.

LWSR: the “one-hybrid fitness for binding NBS DNA” value was ≤ 0.2.

With RGFS, the “one-hybrid fitness for binding NBS DNA” value is ≤ 0.2.

As for KTRQ, the “one-hybrid fitness for binding NBS DNA” value is ≤ 0.2.

As to HYGC, the “one-hybrid fitness for binding NBS DNA” value is ≤ 0.2.

With HGRS, the “one-hybrid fitness for binding NBS DNA” value was ≤ 0.2.

Turning to FMAT, the “one-hybrid fitness for binding NBS DNA” value is ≤ 0.2.

Take ANKD: the “one-hybrid fitness for binding NBS DNA” value is ≤ 0.2.

Regarding VGPD, the “one-hybrid fitness for binding NBS DNA” value was ≤ 0.2.

On to FWPA, for which the “one-hybrid fitness for binding NBS DNA” value was ≤ 0.2.

As to YSIC, the “one-hybrid fitness for binding NBS DNA” value was ≤ 0.2.

Take DSYT: the “one-hybrid fitness for binding NBS DNA” value was ≤ 0.2.

Consider AQST, for which the “one-hybrid fitness for binding NBS DNA” value was ≤ 0.2.

In the case of IRRY, the “one-hybrid fitness for binding NBS DNA” value was ≤ 0.2.

Turning to VQFT, the “one-hybrid fitness for binding NBS DNA” value is ≤ 0.2.

As for YMMY, the “one-hybrid fitness for binding NBS DNA” value is ≤ 0.2.

In the case of SRKA, the “one-hybrid fitness for binding NBS DNA” value was ≤ 0.2.

Take FNQG: the “one-hybrid fitness for binding NBS DNA” value was ≤ 0.2.

Turning to TENG, the “one-hybrid fitness for binding NBS DNA” value was ≤ 0.2.

Regarding CYML, the “one-hybrid fitness for binding NBS DNA” value was ≤ 0.2.

For the variant KPPF, the “one-hybrid fitness for binding NBS DNA” value is ≤ 0.2.

With NNDY, the “one-hybrid fitness for binding NBS DNA” value is ≤ 0.2.

As for LKMM, the “one-hybrid fitness for binding NBS DNA” value is ≤ 0.2.

As for WDTR, the “one-hybrid fitness for binding NBS DNA” value is ≤ 0.2.

As to GTPF, the “one-hybrid fitness for binding NBS DNA” value was ≤ 0.2.

On to LNQC, for which the “one-hybrid fitness for binding NBS DNA” value is ≤ 0.2.

Consider LNTI, for which the “one-hybrid fitness for binding NBS DNA” value is ≤ 0.2.

In the case of MQQC, the “one-hybrid fitness for binding NBS DNA” value is ≤ 0.2.

Consider EVQV, for which the “one-hybrid fitness for binding NBS DNA” value is ≤ 0.2.

For NYAT, the “one-hybrid fitness for binding NBS DNA” value was ≤ 0.2.

Consider RTKN, for which the “one-hybrid fitness for binding NBS DNA” value is 0.3.

Turning to QYQP, the “one-hybrid fitness for binding NBS DNA” value is ≤ 0.2.

For HKPL, the “one-hybrid fitness for binding NBS DNA” value was ≤ 0.2.

Take YREC: the “one-hybrid fitness for binding NBS DNA” value is ≤ 0.2.

In the case of RKSP, the “one-hybrid fitness for binding NBS DNA” value is ≤ 0.2.

As for STVV, the “one-hybrid fitness for binding NBS DNA” value was ≤ 0.2.

Take QQME: the “one-hybrid fitness for binding NBS DNA” value was ≤ 0.2.

On to PWCS, for which the “one-hybrid fitness for binding NBS DNA” value was ≤ 0.2.

With RSSV, the “one-hybrid fitness for binding NBS DNA” value is ≤ 0.2.

As to DTKC, the “one-hybrid fitness for binding NBS DNA” value was ≤ 0.2.

As for FVDC, the “one-hybrid fitness for binding NBS DNA” value is ≤ 0.2.

Take QAPH: the “one-hybrid fitness for binding NBS DNA” value was ≤ 0.2.

Regarding YYSG, the “one-hybrid fitness for binding NBS DNA” value was ≤ 0.2.

For AWRG, the “one-hybrid fitness for binding NBS DNA” value is ≤ 0.2.

On to HVDS, for which the “one-hybrid fitness for binding NBS DNA” value is ≤ 0.2.

For KANC, the “one-hybrid fitness for binding NBS DNA” value is ≤ 0.2.

Turning to KMST, the “one-hybrid fitness for binding NBS DNA” value was ≤ 0.2.

Take VDDG: the “one-hybrid fitness for binding NBS DNA” value is ≤ 0.2.

For TGTN, the “one-hybrid fitness for binding NBS DNA” value is ≤ 0.2.

With DWTH, the “one-hybrid fitness for binding NBS DNA” value is ≤ 0.2.

Turning to PWDC, the “one-hybrid fitness for binding NBS DNA” value is ≤ 0.2.

For the variant TPHP, the “one-hybrid fitness for binding NBS DNA” value is ≤ 0.2.

For RVDR, the “one-hybrid fitness for binding NBS DNA” value worked out at 0.213.

With FPSC, the “one-hybrid fitness for binding NBS DNA” value is ≤ 0.2.

CSYT: the “one-hybrid fitness for binding NBS DNA” value was ≤ 0.2.

Turning to IMKE, the “one-hybrid fitness for binding NBS DNA” value is ≤ 0.2.

As to QCPM, the “one-hybrid fitness for binding NBS DNA” value is ≤ 0.2.

As for PDPW, the “one-hybrid fitness for binding NBS DNA” value is ≤ 0.2.

As for GVPF, the “one-hybrid fitness for binding NBS DNA” value was ≤ 0.2.

With INKK, the “one-hybrid fitness for binding NBS DNA” value is ≤ 0.2.

LQFA: the “one-hybrid fitness for binding NBS DNA” value was ≤ 0.2.

For QVWT, the “one-hybrid fitness for binding NBS DNA” value came to 0.21.

For PQVF, the “one-hybrid fitness for binding NBS DNA” value was ≤ 0.2.

As to GYPG, the “one-hybrid fitness for binding NBS DNA” value was ≤ 0.2.

WITS: the “one-hybrid fitness for binding NBS DNA” value is ≤ 0.2.

Take ACTV: the “one-hybrid fitness for binding NBS DNA” value is ≤ 0.2.

Consider WPWS, for which the “one-hybrid fitness for binding NBS DNA” value is ≤ 0.2.
